Reference: paper PMC5504085 (Journal of medicinal chemistry, 2017)

How the values were obtained:
[1] = system: influenza A virus A/WSN/1933 (H1N1); test: Dose-response reporter assay against IAV; assay type: cell-based
[2] = system: vesicular stomatitis virus (VSV); assay type: cell-based; settings: resynthesized 1a
[3] = system: RSV N mRNA (recRSV-A2-L19F); settings: MOI 3.0, 20-hour exposure

With `Cc1ccoc1C(=O)N1CCCn2nc(C(=O)Nc3ccccc3)cc2C1` [Compound 1a, 5-(3-methylfuran-2-carbonyl)-N-phenyl-5,6,7,8-tetrahydro-4H-pyrazolo[1,5-a][1,4]diazepine-2-carboxamide] as the compound, how does the “inhibition of influenza A virus A/WSN/1933 (H1N1)” value [1] read?
The value was “neither of these pathogens was inhibited”.

And the “inhibition of VSV” value [2]?
The value was “neither of these pathogens was inhibited”.

What about the “concentration above which reduction of RSV N mRNA was statistically significant” value [3] of the same compound?
Its value is “exceeded 1 µM”.

What about the “relative amount of RSV N protein-encoding mRNA” value ([3]; 0.1 to 10 µM, dose-dependent) of the same compound?
Its value is “reduced the relative amount of RSV N protein-encoding mRNA”.
